# Assay results as given in PubChem BioAssay (NCATS).
# Where “and” joins values, the source holds several entries; their conditions need not be identical. Identical values can stand only once. The list shows a part of the results. These are further read-outs of the screen, such as a control signal, another cell line or another target. No call is given for them. For some of these results: Compounds called inactive in the main read-out are mostly missing here. For some of these results: Potencies come from curve fits of mixed quality, noted in brackets.
# Tests used:
# [1] = qHTS Assay for Lipid Storage Modulators (AID 1519); conditions: Drosophila S3 cells, BODIPY lipid droplet/cell ratio, laser cytometry, cells loaded with oleic acid
# Summary of the method: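 Cells seeded at 5,000 per well were treated with compounds over a concentration series and loaded with oleic acid (400 uM, as added). Lipid droplet fluorescence (488 nm excitation, 500-530 nm channel) was read by laser-scanning cytometry and normalized to 20 uM Triacsin C.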
# [2] = qHTS Assay for Modulators of Human Peripheral Myelin Protein 22 (PMP22) Expression/Activity (AID 1967); conditions: Cell-based PMP22 reporter, dual-color luciferase ratio
# Summary of the method: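 MSC80 mouse Schwann cells stably carrying Pmp22 promoter–green click beetle luciferase plus EF-alpha–red luciferase control were dosed for 24h at 37 °C. Dual-colour luminescence was filter-overlap corrected; %Activity came from green/red ratio versus untreated cells.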
# [3] = qHTS for identification of novel therapeutic agents for treatment of microphthalmiaassociated transcription factor (MiT) renal cell carcinoma (RCC) (AID 1963991); conditions: CellTiter-Glo, 48 h; for z-score: stronger effect = lower value; for AC50: measured here: UOK145 cell viability
# Summary of the method: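 Curves over 11 concentrations were fitted to CellTiter-Glo luminescence, scaled between empty wells (0%) and DMSO (100%) viability. Cells were UOK109, UOK124 and UOK145 TFE3-fusion RCC lines at 500/well, exposed 48 hours at 37 C.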
# [4] = A High-Content qHTS Against Drug Library for the Identification of Small Molecules that Inhibit DYT1 Early Onset Primary Dystonia-Associated Cell Pathology (AID 1645839); conditions: HEK293 Flp-In EGFP-delE TorsinA, punctate imaging, 48 h; measured here: cell count cytotoxicity
# Summary of the method: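 Induced EGFP-delE TorsinA cells are imaged after 48 h of compound treatment. Punctate fusion-protein distribution gives the %pathology value, while nuclei counts flag toxicity. Wild-type EGFP-hTOR1A cells define the normal pattern.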
# [5] = qHTS assay for small molecule antagonists of glucocorticoid receptor signaling (AID 588533); conditions: HeLa MMTV-bla, GRE beta-lactamase ratio, antagonist mode, 18 h; measured here: W530 channel AC50;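 further: cells stimulated with 2 nM dexamethasone as agonist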
# [6] = qHTS assay for small molecule antagonists of peroxisome proliferator-activated receptor delta signaling (AID 588535); conditions: HEK293T PPARd-UAS-bla, beta-lactamase FRET ratio, 18 h; 460 nm channel;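 further: cells co-treated with a PPAR-delta agonist as stimulator during compound exposure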
# Summary of the method: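 Inhibition of PPAR-delta response element-driven beta-lactamase expression is measured in HEK293T cells exposed to a compound titration series for 18 hrs at 37 C. Half-maximal inhibition comes from Hill equation fitting.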
# [7] = qHTS assay for small molecule antagonists of peroxisome proliferator-activated receptor gamma signaling (AID 588537); conditions: HEK293 PPARg-UAS-bla, beta-lactamase ratio, antagonist mode; measured here: W460 blue channel
# Summary of the method: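 Compounds are tested as concentration series for inhibition of rosiglitazone-driven (50 nM) reporter expression in GeneBLAzer PPAR-gamma-UAS-bla HEK293 cells. After 16 h at 37 C, CCF4 substrate is added for 2 h at room temperature and blue/green fluorescence is measured.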
# [8] = qHTS assay for small molecule antagonists of vitamin D receptor signaling (AID 588541); conditions: HEK293T VDR-UAS-bla, beta-lactamase ratio, antagonist mode; measured here: W460 blue channel (cell viability)
# [9] = qHTS assay for small molecule agonists of retinoid X receptor alpha signaling (AID 588544); conditions: HEK293T RXRa-UAS-bla, beta-lactamase reporter, 18 h; 530 nm emission
# [10] = S16 Schwann cell PMP22 intronic element beta-lactamase assay (AID 624044); conditions: S16 rat Schwann cells, PMP22 element beta-lactamase FRET, 24 h; measured here: 460 nm blue channel; further: nearly all actives have a fitted effect of over 15% in size
# Summary of the method: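 Beta-lactamase reporter under a PMP22 intronic regulatory element in stable S16 rat Schwann cells; 24 h compound exposure. 460 nm blue signal normalized between DMSO (0%) and potassium clavulanate, with 535 nm FRET tracking viability; curves classed by r2 and response.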
# [11] = NCATS anti-infectives library activity on the primary C. elegans qHTS viability assay (AID 1745855); conditions: C. elegans worm area imaging, day 7; measured here: worm area, day 3
# Summary of the method: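 GFP read-out by 488 nm laser cytometry at day 0, 3 and 7, gated on object perimeter, area and peak intensity, scored viability of PE254-GFP-FLuc worms exposed to compound in S medium with bacterial capsules at 21 °C.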
# [12] = qHTS drug screen for cell cycle checkpoint inhibitors in PARPi-resistant BRCA-mutant ovarian cancer cell lines. (AID 1963452); conditions: PEO1/OlaR viability, CellTiter-Glo luminescence, 96 h
# Summary of the method: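 PEO1, PEO4 and PEO1/OlaR ovarian cancer cells, 600 per well, exposed 96 h at 37C to a dilution series. Viability read by CellTiter-Glo luminescence, normalized to DMSO and empty wells; activity summarized as Z-AUC.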
# [13] = qHTS Validation Assay to Find Inhibitors of Chronic Active B-Cell Receptor Signaling (AID 485345); conditions: ABC-DLBCL cells, chronic BCR signaling reporter; measured here: CBR control luciferase (viability counter)
# Summary of the method: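 TMD8 ABC-DLBCL cells with dox-inducible green luciferase–IκBα fusion and red native luciferase; compounds 46 uM–3 nM, 4 h at 37C with doxycycline in 0.5% FBS IMDM. Green/red ratio normalized to basal and 10 uM MG-132.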
# [14] = qHTS Validation Assay for Iinhibitors of HIV-1 Budding by Blocking the Interaction of PTAP/TSG101 (AID 485342); conditions: TSG101-PTAP binding, fluorescence polarization, 4-point titration; measured here: FITC channel readout
# Summary of the method: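 Tsg101 binding domain (10 uM final) in pH 7.5 HEPES/NaCl/Tween 20/EDTA/TCEP buffer was mixed with pin-transferred compounds, then FITC-labeled PTAP peptide (50 nM final) was added; after 20 min at r.t., fluorescence polarization was read.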
# [15] = measured here: cell count channel max response
# [16] = measured here: lipid (BODIPY) channel AC50
# [17] = measured here: lipid channel max response
# [18] = measured here: green reporter channel AC50, mouse Pmp22 promoter in mouse Schwann cells
# [19] = measured here: red reporter channel AC50, EF-alpha promoter control reporter in MSC80 mouse Schwann cells
# [20] = TFE3-RCC UOK109 viability, measured here: UOK109 Z-AUC
# [21] = TFE3-RCC viability, measured here: UOK124 Z-AUC
# [22] = TFE3-RCC viability, measured here: UOK145 Z-AUC
# [23] = measured here: cell number channel AC50
# Tags describe the fitted curve by direction and shape.
smiles,measurement,setting,value
Cc1ccccc1C(OCCN(C)C)c1ccccc1 (stereo unspecified),max response,[1]; [15],24.5%
same,AC50,[1]; [16],"39.8 µM [rising, single point]"
same,max response,[1]; [17],37.7%
same,AC50,[2]; [18],"75.7 µM [falling, partial curve, poor fit]"
same,AC50,[2]; [19],"95.3 µM [falling, single point]"
same,z-score,[3]; [20],0.675
same,z-score,[3]; [21],0.684
same,z-score,[3]; [22],0.526
CCCCCN(CCCCC)C(=O)C(CCC(=O)O)NC(=O)c1ccc(Cl)c(Cl)c1 (stereo unspecified),max response,[1]; [15],19.8%
same,AC50,[1]; [16],"14.1 µM [rising, partial curve, poor fit]"
same,max response,[1]; [17],32.1%
same,AC50,[4],"7.08 µM [falling, partial curve, poor fit]"
N=c1nc(N2CCCCC2)cc(N)n1O,max response,[1]; [15],-75.5%
same,AC50,[1]; [23],"39.8 µM [falling, partial curve, poor fit]"
same,max response,[1]; [17],-73.9%
same,AC50,[4],"20 µM [rising, single point]"
same,z-score,[3]; [20],0.324
same,z-score,[3]; [21],0.726
same,z-score,[3]; [22],0.519
same,AC50,[3]; TFE3-RCC viability,"20.9 µM [falling, partial curve, poor fit]"
CCOC(=O)c1ncn2c1CN(C)C(=O)c1cc(F)ccc1-2,max response,[1]; [15],45.3%
same,AC50,[1]; [16],"0.01 µM [falling, full curve, poor fit]"
same,max response,[1]; [17],47.4%
same,z-score,[3]; [20],-0.981
same,z-score,[3]; [21],0.415
same,z-score,[3]; [22],-0.96
same,AC50,[3]; TFE3-RCC viability,"0.187 µM [rising, full curve]"
COc1cccc2c1C(=O)c1c(O)c3c(c(O)c1C2=O)C[C@@](O)(C(C)=O)C[C@@H]3O[C@H]1C[C@H](N)[C@H](O)[C@H](C)O1,max response,[1]; [15],-31.1%
same,AC50,[1]; [16],"1 µM [falling, full curve, poor fit]"
same,max response,[1]; [17],-95.1%
same,AC50,[5],"2.51 µM [falling, full curve]"
same,max response,[6],-132%
same,AC50,[7],"8.91 µM [falling, full curve]"
same,AC50,[8],"8.91 µM [falling, full curve, poor fit]"
same,max response,[9],-18.2%
same,AC50,[10],"0.178 µM [falling, full curve]"
same,AC50,[4],"35.5 µM [falling, partial curve, poor fit]"
same,AC50,[11],"0.0816 µM [falling, full curve, poor fit]"
same,AC50,[12]; measured here: PEO1 parental viability,"0.155 µM [falling, full curve]"
same,AC50,[12]; measured here: PEO4 viability,"0.436 µM [falling, full curve]"
O=C(COc1ccc(Cl)cc1)N1CCN(Cc2ccc3c(c2)OCO3)CC1,max response,[1]; [15],17.9%
same,AC50,[1]; [16],"1 µM [rising, full curve, poor fit]"
same,max response,[1]; [17],34.6%
same,AC50,[10],"0.631 µM [falling, full curve, poor fit]"
same,AC50,[4],"0.501 µM [falling, full curve, poor fit]"
OC(CCN1CCCCC1)(c1ccccc1)C1CCCCC1 (stereo unspecified),max response,[1]; [15],23.4%
same,AC50,[1]; [16],"39.8 µM [rising, single point]"
same,max response,[1]; [17],34.6%
same,AC50,[2]; [18],"75.7 µM [falling, partial curve]"
same,AC50,[2]; [19],"95.3 µM [falling, single point]"
same,AC50,[13],"3.66 µM [falling, full curve]"
same,AC50,[4],"11.2 µM [falling, partial curve, poor fit]"
CCCCOC(=O)c1ccc(N)cc1,max response,[1]; [15],25.2%
same,AC50,[1]; [16],"20 µM [rising, partial curve, poor fit]"
same,max response,[1]; [17],50.7%
same,max response,[6],2.43%
same,AC50,[7],"17.8 µM [falling, partial curve, poor fit]"
same,AC50,[4],"1.41 µM [falling, full curve, poor fit]"
Oc1cc2c(cc1O)[C@H]1c3ccc(O)c(O)c3OC[C@@]1(O)C2,max response,[1]; [15],76.7%
same,AC50,[1]; [16],"31.6 µM [rising, partial curve, poor fit]"
same,max response,[1]; [17],120%
same,AC50,[5],"11.2 µM [falling, partial curve, poor fit]"
same,max response,[6],-23.2%
same,AC50,[7],"0.0398 µM [falling, full curve, poor fit]"
CC(C(=O)O)c1cccc(C(=O)c2ccccc2)c1 (stereo unspecified),max response,[1]; [15],23.6% and 52.5%
same,AC50,[1]; [16],"39.8 µM [rising, single point]"
same,max response,[1]; [17],39.2% and 56.4%
same,AC50,[2]; [18],"26.9 µM [falling, full curve]"
CN1C2CCC1CC(OC(c1ccccc1)c1ccccc1)C2 (stereo unspecified),max response,[1]; [15],21.1%
same,AC50,[1]; [16],"0.631 µM [rising, full curve, poor fit]"
same,max response,[1]; [17],26.7%
same,AC50,[2]; [18],"42.6 µM [falling, partial curve]"
same,AC50,[2]; [19],"37.9 µM [falling, full curve]"
O=C(O)/C=C/C(O)c1ccc(Cl)cc1 (stereo unspecified),max response,[1]; [15],-28.3%
same,AC50,[1]; [23],"20 µM [falling, single point]"
same,max response,[1]; [17],-36.9%
same,AC50,[2]; [18],"67.5 µM [falling, partial curve, poor fit]"
NC(=O)CC[C@H](N)C(=O)O,max response,[1]; [15],26.5% and 38%
same,AC50,[1]; [16],"22.4 µM [rising, partial curve, poor fit]"
same,max response,[1]; [17],44.9% and 37.1%
same,AC50,[2]; [19],"84.9 µM [falling, single point]"
Cc1cc(=O)[nH]c(=S)[nH]1,max response,[1]; [15],17.4%
same,AC50,[1]; [16],"25.1 µM [rising, partial curve, poor fit]"
same,max response,[1]; [17],37.9%
same,max response,[6],184%
CN1Cc2c(N)cccc2C(c2ccccc2)C1 (stereo unspecified),max response,[1]; [15],15.8%
same,AC50,[1]; [16],"10 µM [rising, partial curve, poor fit]"
same,max response,[1]; [17],31%
same,AC50,[2]; [18],"53.6 µM [falling, partial curve, poor fit]"
same,AC50,[2]; [19],"67.5 µM [falling, partial curve, poor fit]"
same,AC50,[14],"35.5 µM [falling, partial curve]"
